# Experimental data taken from PubChem BioAssay (NCATS).
# “And” between values parts separate entries of the source, which are not always exact repeats. Equal values may be shown once. This list was built around the results that the source calls inconclusive (neither active nor inactive); the mix of calls is not that of the screen. For some assays here: Potencies of inconclusive entries are doubtful fits and often do not repeat. The source made the active and inactive calls. Calls follow the shape of the dose curve; as a rule, active = well fitted curve in the direction sought with a large enough effect; inconclusive = small, poorly fitted or top-dose-only effect, or another doubt; inactive = no such curve, though single readings can be large; an effect the other way counts as inactive or inconclusive.
# How the values were obtained:
# [1] = NS1 protein of Zika virus - qHTS assay to identify small molecule inhibitors in human HEK 293 cells (AID 1347053); also: nearly all actives have a fitted effect of over 55% in size
# How it was run: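 Inhibition of NS1 expression was scored in HEK 293 cells given compound 1 h ahead of MR766 virus (MOI = 0.5). Following 24 h at 37 C, two anti-NS1 antibodies generated a TR-FRET signal, scaled between uninfected and infected controls.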
# [2] = qHTS of pediatric cancer cell lines to identify multiple opportunities for drug repurposing: Primary screen for TC32 cells (AID 1347089); also: nearly all actives have a fitted effect of over 60% in size
# How it was run: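 Luminescent ATP read-out (CellTiter-Glo) of metabolically active TC32 cells after 48 h exposure. Concentration-response curves came from 11-point (MIPE, 0.78 nM–46 µM) or 8-point (NPC, 0.59 nM–46 µM) primary titrations; follow-up used 11 points.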
# [3] = qHTS of pediatric cancer cell lines to identify multiple opportunities for drug repurposing: Primary screen for NB1643 cells (AID 1347099); also: nearly all actives have a fitted effect of over 50% in size
# How it was run: (§1)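 500-1,000 cells/well; 5 h pre-incubation 37 °C/5% CO2; compound pinned; 48 h; CellTiter-Glo, 15 min RT; luminescence. MIPE 11-pt from 0.78 nM, NPC 8-pt from 0.59 nM final. Bortezomib 2.3 µM final as positive control.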
# [4] = qHTS of pediatric cancer cell lines to identify multiple opportunities for drug repurposing: Primary screen for Rh41 cells (AID 1347108); also: nearly all actives have a fitted effect of over 70% in size
# How it was run: as §1
# [5] = Quantitative High-Throughput drug screen in 47 multiple myeloma cell lines against the NCATS MIPE library collection: KMM1_JCRB cell viability assay (AID 1918960); also: nearly all actives have a fitted effect of over 30% in size
# How it was run: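 ATP readout (CellTiter-Glo), 48 h drug incubation, 37 °C/5% CO2, 500 cells per well; normalisation to DMSO (100%) and media-only (0%) controls.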
# [6] = Quantitative High-Throughput drug screen in 47 multiple myeloma cell lines against the NCATS MIPE library collection: Karpas417_ECACC cell viability assay (AID 1918961); settings: Karpas417 myeloma viability, CellTiter-Glo ATP luminescence, 48 h; viability (% of DMSO): at 45.8 µM (top of the series)
# How it was run: (§2)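 Myeloma cell lines, 500 cells per well, exposed to MIPE 4.0 library compounds for 48 h at 37C, 5% CO2. Viability from ATP by CellTiter-Glo luminescence; normalised to DMSO (100%) and media-only (0%) wells.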
# [7] = Quantitative High-Throughput drug screen in 47 multiple myeloma cell lines against the NCATS MIPE library collection: KMS12PE_JCRB cell viability assay (AID 1918972); also: nearly all actives have a fitted effect of over 30% in size
# How it was run: as §2
# [8] = Quantitative High-Throughput drug screen in 47 multiple myeloma cell lines against the NCATS MIPE library collection: KMS20_JCRB cell viability assay (AID 1918973); settings: CellTiter-Glo ATP, 48 h; viability (% of DMSO): at 45.8 µM (top of the series); also: nearly all actives have a fitted effect of over 45% in size
# How it was run: (§3)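 CellTiter-Glo luminescence (ATP) after 48 h compound exposure, 37C/5% CO2; 500 cells/well; MIPE 4.0 approved/investigational drugs pinned in; DMSO = 100%, media only = 0% viability.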
# [9] = Quantitative High-Throughput drug screen in 47 multiple myeloma cell lines against the NCATS MIPE library collection: KMS21BM_JCRB cell viability assay (AID 1918974); settings: ATP luminescence, 48 h; viability: at 45.8 µM (top of the series)
# How it was run: as §3
# [10] = Quantitative High-Throughput drug screen in 47 multiple myeloma cell lines against the NCATS MIPE library collection: MMM1_PLB cell viability assay (AID 1918976); also: nearly all actives have a fitted effect of over 35% in size
# How it was run: (§4)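 500 cells/well per myeloma line exposed to pinned MIPE 4.0 compounds for 48 h at 37 °C, 5% CO2. Viability read as ATP by CellTiter-Glo luminescence, normalised to DMSO-only (100%) and media-only (0%) wells.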
# [11] = Quantitative High-Throughput drug screen in 47 multiple myeloma cell lines against the NCATS MIPE library collection: MOLP8_DSMZ cell viability assay (AID 1918977); settings: MOLP8 myeloma viability, CellTiter-Glo ATP luminescence, 48 h; series mostly up to 45.8 µM; also: nearly all actives have a fitted effect of over 45% in size
# How it was run: as §4
# [12] = Quantitative High-Throughput drug screen in 47 multiple myeloma cell lines against the NCATS MIPE library collection: LP1_DSMZ cell viability assay (AID 1918982); also: nearly all actives have a fitted effect of over 35% in size
# How it was run: as §4
# [13] = Quantitative High-Throughput drug screen in 47 multiple myeloma cell lines against the NCATS MIPE library collection: KMS34_JCRB cell viability assay (AID 1918985); also: nearly all actives have a fitted effect of over 40% in size
# How it was run: as §4
# UISO = experiment: qHTS assay to identify novel small-molecules to repurpose for Merkel cell carcinoma treatment (AID 1296009); settings: MCC and control cell lines, CellTiter-Glo viability, 72 h; series mostly up to 46 µM; also: nearly all actives have a fitted effect of over 60% in size
# How it was run: (§5)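 Cells were treated for 72 hr at 37 degree celsius with compounds in 8- or 11-point dose response. Viability was read by CellTiter-Glo luminescence, normalized to no-cell (cytotoxicity) and DMSO controls.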
# WaGa = experiment: as above; settings: MCC and control cell lines, CellTiter-Glo viability, 72 h; series mostly up to 46 µM
# How it was run: as §5
# [14] = qHTS of pediatric cancer cell lines to identify multiple opportunities for drug repurposing: Primary screen for SJ-GBM2 cells (AID 1347091)
# How it was run: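 Viability measured as metabolically active cells via CellTiter-Glo luminescence following 48 hours of compound exposure, 11-point dilutions in confirmatory testing. 500-1,000 cells/well plated 5 hours before dosing; controls were DMSO and 2.3 µM bortezomib.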
# [15] = qHTS of pediatric cancer cell lines to identify multiple opportunities for drug repurposing: Primary screen for LAN-5 cells (AID 1347100)
# How it was run: (§6)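 Viability after 48 h compound treatment at 37C, 500-1,000 cells/well, read as ATP luminescence with CellTiter-Glo. Primary screens used 11-point (MIPE, 0.78 nM-46 µM) or 8-point (NPC, 0.59 nM-46 µM) final concentrations; follow-up screens used 11-point dilutions.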
# HeLa = experiment: Primary qHTS to identify gynecologic anti-cancer compounds using libraries of approved drugs and bioactive compounds (AID 1345084); settings: Gynecologic cancer cell panel viability, ATPlite luminescence, 48 h; series mostly up to 57.5 µM; also: nearly all actives have a fitted effect of over 55% in size
# How it was run: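 48 h compound exposure at 37 C, 5% CO2; five-point qHTS. ATPlite luminescence readout of cell ATP.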
# [16] = qHTS of pediatric cancer cell lines to identify multiple opportunities for drug repurposing: Primary screen for Rh18 cells (AID 1347102); also: nearly all actives have a fitted effect of over 65% in size
# How it was run: as §6
# [17] = target: Glutathione peroxidase 1 (Homo sapiens) (UniProt P07203); experiment: Primary qHTS Assay for Inhibitors of Recombinant Selenoprotein Glutathione Peroxidase 1 (GPX1) (AID 1845191); settings: activity, negative = inhibition: at 48.8 µM (top of the series); also: nearly all actives have a fitted effect of over 65% in size
# Chain of UniProt P07203 (P07203 whole entry, looked up): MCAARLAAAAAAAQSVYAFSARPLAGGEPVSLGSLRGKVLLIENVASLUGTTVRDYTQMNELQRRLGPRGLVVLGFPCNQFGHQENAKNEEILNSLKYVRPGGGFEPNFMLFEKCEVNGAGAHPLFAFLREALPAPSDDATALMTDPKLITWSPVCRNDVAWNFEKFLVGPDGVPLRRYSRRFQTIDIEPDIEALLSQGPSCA
# How it was run: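 GR-coupled assay: compounds preincubated 30 min at room temperature with GPX1, then reaction started with CHP; final 10 nM GPX1, 1 mM GSH, 0.5 mM CHP, 0.5 mM NADPH, 100 nM GR, 0.01% BSA, pH 7.5 Tris buffer. NADPH fluorescence (340/450 nm) read at 0 and 15 min.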
# Potency is read from the fitted curve at half-maximal effect; tags tell the direction and shape of the fitted curve.
structure (smiles),measurement,setting,value
CN1CCc2c(c3ccccc3n2Cc2ccc(C(=O)NO)cc2)C1,Potency,[1],"inconclusive: 37.2 µM [inhibitor, single point]"
same,Potency,[2],"inconclusive: 37 µM [cytotoxic, single point]"
same,Potency,[3],active: 16.6 µM
same,Potency,[4],active: 13.2 µM
same,Potency,[5],"inconclusive: 33.2 µM [cytotoxic, single point]"
same,Potency,[6],active: 20.9 µM
same,Potency,[7],"inconclusive: 33.2 µM [cytotoxic, single point]"
same,Potency,[8],"inconclusive: 13.2 µM [cytotoxic, partial curve]"
same,Potency,[9],"inconclusive: 33.2 µM [cytotoxic, partial curve, poor fit]"
same,Potency,[10],"inconclusive: 20.9 µM [cytotoxic, single point]"
same,Potency,[11],"inconclusive: 11.8 µM [cytotoxic, full curve]"
same,Potency,[12],"inconclusive: 18.7 µM [cytotoxic, partial curve]"
same,Potency,[13],active: 16.6 µM
same,Potency,UISO,"inconclusive: 20.9 µM [inhibitor, single point]"
same,Potency,WaGa,active: 20.9 µM
C[C@]12CC[C@@H]3c4ccc(O)cc4CC[C@H]3[C@@H]1CC[C@@H]2OC(=O)CCC1CCCC1,Potency,[14],"inconclusive: 21.1 µM [cytotoxic, single point]"
same,Potency,[15],"inconclusive: 18.8 µM [cytotoxic, single point]"
O=C(C=Cc1ccc(CN(CCO)CCc2c[nH]c3ccccc23)cc1)NO,Potency,[1],"inconclusive: 37.2 µM [inhibitor, single point]"
same,Potency,[2],active: 0.93 µM
same,Potency,[3],active: 0.166 µM
same,Potency,[6],active: 0.105 µM
same,Potency,[8],"inconclusive: 0.0235 µM [cytotoxic, full curve, poor fit]"
same,Potency,[9],"inconclusive: 33.2 µM [rising, partial curve]"
same,Potency,[13],active: 0.105 µM
Cc1ccc2nc(N)[nH]c(=O)c2c1Sc1ccncc1,Potency,[14],"inconclusive: 33.5 µM [cytotoxic, single point]"
same,Potency,[15],"inconclusive: 26.6 µM [cytotoxic, single point]"
same,Potency,[4],"inconclusive: 33.5 µM [cytotoxic, partial curve, poor fit]"
same,Potency,UISO,"inconclusive: 15 µM [inhibitor, partial curve]"
same,Potency,WaGa,active: 3.35 µM
same,Potency,HeLa,"inconclusive: 3.98 µM [cytotoxic, full curve, poor fit] and inconclusive: 35.5 µM [cytotoxic, single point]"
CCCCCC(=O)O[C@]1(C(C)=O)CC[C@H]2[C@@H]3CCC4=CC(=O)CC[C@]4(C)[C@H]3CC[C@@]21C,Potency,[1],"inconclusive: 17.8 µM [inhibitor, partial curve, poor fit]"
same,Potency,[14],"inconclusive: 18.8 µM [cytotoxic, single point]"
same,Potency,[16],"inconclusive: 21.1 µM [cytotoxic, partial curve, poor fit]"
same,Potency,[4],"inconclusive: 21.1 µM [cytotoxic, single point]"
same,Potency,WaGa,"inconclusive: 29.9 µM [inhibitor, single point]"
same,Potency,HeLa,"inconclusive: 25.1 µM [cytotoxic, partial curve, poor fit]"
Cn1cnc(-c2nccc3c(=O)[nH]c(OCCCC(F)(F)F)nc23)c1,Potency,[17],active: 8.06 µM
CCN(CC)CCNC(=O)c1c(C)[nH]c(C=C2C(=O)Nc3ccc(F)cc32)c1C,Potency,[1],"inconclusive: 24.1 µM [inhibitor, single point]"
same,Potency,[2],active: 12 µM
same,Potency,[3],active: 38.2 µM
same,Potency,[16],active: 17.1 µM
same,Potency,[4],active: 13.6 µM
same,Potency,[7],active: 1.36 µM
same,Potency,[8],active: 0.855 µM
same,Potency,[9],active: 0.762 µM
same,Potency,[11],"inconclusive: 2.15 µM [cytotoxic, full curve]"
same,Potency,[12],active: 30.3 µM
same,Potency,[13],active: 6.05 µM
same,Potency,UISO,active: 6.05 µM
COc1cc2c(cc1OC(C)C)[C@H](c1ccc(Cl)cc1)N(c1ccc(N(C)CC3CCC(N4CCN(C)C(=O)C4)CC3)cc1)C(=O)C2 (stereo partly drawn),Potency,[17],inactive
CCN(CC)CCCCNc1ncc2cc(-c3c(Cl)cccc3Cl)c(NC(=O)NC(C)(C)C)nc2n1,Potency,[1],"inconclusive: 35.5 µM [inhibitor, single point]"
same,Potency,[17],"inconclusive: 35.5 µM [inhibitor, single point] and active: 20.2 µM"
same,Potency,HeLa,"inconclusive: 0.316 µM [cytotoxic, full curve, poor fit]"
